{
  "source": "PubChem BioAssay AID463173",
  "about": "(ICCB-Longwood Screening Facility, Harvard Medical School, 2010)",
  "note": "Screen size: about 52,000 compounds; about 4,300 (8.3%) were called active. No stated cut-off is given here; in the data, active means survival mostly below about 52% (no sharp cut-off); inactive means mostly above about 56%. The list shows a part of the results.",
  "data": [
    {"system": "DeltatarO mutant", "assay": "growth inhibition of S. aureus wild type versus tarO mutant, primary screen, teichoic acid synthesis inhibitors, RN4220, OD600 (AID 463173)", "conditions": "OD600, 18 h, hits give low values, screened at 18.75 µg/mL (by protocol)", "values": [
      {"molecule": "CCc1cccc(C)c1NC(=O)c1ccc2c(c1)CCN2S(=O)(=O)CC", "survival": "inactive: 79%"},
      {"molecule": "CC(=O)Nc1ccc(NC(=O)c2cc(-c3cccs3)on2)cc1", "survival": "inactive: 78%"},
      {"molecule": "O=C(CSC1=Nc2ccccc2N=C(c2ccc(F)cc2)C1)Nc1ccc(Cl)cc1", "survival": "inactive: 88%"},
      {"molecule": "Cc1ccc(Sc2c(C)nn(C(=O)c3ccc(Br)cc3)c2C)cc1", "survival": "active: 16%"},
      {"molecule": "COc1ccc(Nc2ncnc3onc(C)c23)c(OC)c1", "survival": "inactive: 78%"},
      {"molecule": "COc1ccc(S(=O)(=O)NCCc2sc3nc(-c4ccc(C)cc4)nn3c2C)cc1F", "survival": "inactive: 72%"},
      {"molecule": "O=C(CSc1nc2ccccc2nc1Cc1ccccc1)Nc1ccccc1C(F)(F)F", "survival": "inactive: 91%"},
      {"molecule": "CCOc1ccc(-n2ccnc2SCC(=O)Nc2ccc3c(c2)OCO3)cc1", "survival": "inactive: 81%"},
      {"molecule": "CCOc1ccc(CNC(=O)c2cnc3sc(N(CC)CC)nn3c2=O)cc1", "survival": "inactive: 83%"},
      {"molecule": "O=C(NCCS(=O)(=O)N1CCN(c2ccccc2F)CC1)C1CC(=O)N(c2ccccc2)C1", "note": "(stereo not drawn)", "survival": "inactive: 90%"},
      {"molecule": "COc1cccc(NC(=O)c2c(N3CCCC3=O)c3cc(C)ccc3n2C)c1", "survival": "inactive: 84%"},
      {"molecule": "CN1CCCc2cc(CN)ccc21", "survival": "inactive: 86%"},
      {"molecule": "Cc1ccc(NC(=O)C2CCCN2S(=O)(=O)c2ccc3c(c2)C(C)(C)C(=O)N3C)cc1", "note": "(stereo not drawn)", "survival": "inactive: 51%"},
      {"molecule": "CCOc1ccc(NC(=O)c2cc(C)nc3c2c(C)nn3-c2cccc(F)c2)cc1", "survival": "inactive: 89%"},
      {"molecule": "Cn1cnc(S(=O)(=O)N2CCCC(C(=O)NCc3ccccc3)C2)c1", "note": "(stereo not drawn)", "survival": "inactive: 101%"},
      {"molecule": "Cc1cccc(N2CCN(C(=O)Cn3ncc4c([nH]c5ccccc54)c3=O)CC2C)c1", "note": "(stereo not drawn)", "survival": "inactive: 93%"},
      {"molecule": "COc1ccc(-c2cc(C)no2)cc1S(=O)(=O)NC1CCC(C)CC1", "note": "(stereo not drawn)", "survival": "inactive: 94%"},
      {"molecule": "CC1(C(=O)NC2CCCCC2)Cc2ccccc2C(=O)N1Cc1ccc(F)cc1", "note": "(stereo not drawn)", "survival": "inactive: 120%"},
      {"molecule": "Cc1ccc(S(=O)(=O)c2nc(-c3ccco3)oc2SCc2ccc(F)cc2)cc1", "survival": "inactive: 66%"},
      {"molecule": "COc1ccc(C(=O)Nc2c(C(=O)c3ccc(F)cc3)oc3ccccc23)cc1", "survival": "inactive: 103%"},
      {"molecule": "CCc1cccc(C)c1NC(=O)C1CCN(S(=O)(=O)c2cccc3nonc23)CC1", "survival": "inactive: 103%"},
      {"molecule": "O=C1CC(c2ccc(Cl)cc2)c2cc3c(cc2N1)OCCO3", "note": "(stereo not drawn)", "survival": "inactive: 50%"},
      {"molecule": "CC(=O)Nc1nnc(CC(C)(C)C)s1", "survival": "inactive: 99%"},
      {"molecule": "COc1ccc(-c2nc3c(c(SCC(=O)Nc4ccccc4OC)n2)Cc2cccc(C)c2O3)cc1", "survival": "inactive: 89%"},
      {"molecule": "CCCCCn1c(=O)[nH]c2cc(C(=O)N3CCN(c4cccc(OC)c4)CC3)ccc2c1=O", "survival": "active: 55%"},
      {"molecule": "CCCSc1ncc(Cl)c(C(=O)Nc2scc(-c3ccc(C)cc3)c2C(=O)OCC)n1", "survival": "inactive: 62%"},
      {"molecule": "CCOCCCNC(=O)c1cc(=O)[nH]c2ccc(S(=O)(=O)N3CCCC3)cc12", "survival": "inactive: 64%"},
      {"molecule": "CCOc1ccc(CNC(=O)c2cccn2-c2nnc(N3CCCCC3)s2)cc1OC", "survival": "inactive: 92%"},
      {"molecule": "CCCCC(=O)Nc1c(C(=O)N2CCN(c3ccccc3)CC2)oc2ccccc12", "survival": "inactive: 80%"},
      {"molecule": "O=C(Nc1ccc(C(=O)OCc2cc(=O)n3nc(C4CC4)sc3n2)cc1)c1cccc(Cl)c1", "survival": "inactive: 76%"},
      {"molecule": "CCc1ccccc1NC(=O)C(CC)Oc1ccccc1-c1nnc(-c2ccccc2)o1", "note": "(stereo not drawn)", "survival": "active: 32%"},
      {"molecule": "CCOc1ccc(CCNC(=O)c2cccc(-n3c(C)nc4cccnc43)c2C)cc1", "survival": "inactive: 79%"},
      {"molecule": "CCOC(=O)CCCN1C(=O)CCn2nc(-c3cn(C)c4ccccc34)cc21", "survival": "inactive: 69%"},
      {"molecule": "C=CCNc1nc(NCc2ccco2)nc(OCC)n1", "survival": "inactive: 86%"},
      {"molecule": "CCCCN(Cc1ccccc1)S(=O)(=O)c1cc(Br)cc2c1N(C(C)=O)CC2", "survival": "inactive: 63%"},
      {"molecule": "COc1ccc(S(=O)(=O)N(Cc2cc3cc4c(cc3n3nnnc23)OCO4)C2CCCCC2)cc1", "survival": "inactive: 76%"},
      {"molecule": "CC(C)CCNC(=O)c1c2c(nc3ccccc13)C(=O)N(C1CCCCC1)C2", "survival": "inactive: 101%"},
      {"molecule": "CC(=O)N1CCOc2cc(S(=O)(=O)Nc3c(C)cccc3C(C)C)c(Cl)cc21", "survival": "inactive: 72%"},
      {"molecule": "O=C(Nc1ccccc1F)C1CCN(S(=O)(=O)c2ccc3c(c2)CCCN3C(=O)C2CCC2)CC1", "survival": "inactive: 80%"},
      {"molecule": "Cc1ccc(-c2nc(CS(=O)CC(=O)N3CCN(c4ccc(F)cc4)CC3)c(C)o2)cc1", "note": "(stereo not drawn)", "survival": "inactive: 57%"},
      {"molecule": "CCC(C)NC(=O)Cc1ccc(NC(=O)N2CCCCc3ccccc32)cc1", "note": "(stereo not drawn)", "survival": "inactive: 93%"},
      {"molecule": "CC(C)Oc1ccc(CNC(=O)C2CCCCN2S(=O)(=O)c2ccc(F)cc2)cc1", "note": "(stereo not drawn)", "survival": "inactive: 80%"},
      {"molecule": "CC(=O)Nc1nc2ccc3ccccc3c2s1", "survival": "inactive: 89%"},
      {"molecule": "Cc1cc(C)cc(OCc2cc(=O)n3c4c(sc3n2)CCCC4)c1", "survival": "inactive: 91%"},
      {"molecule": "N#Cc1ccccc1NC(=O)C(=O)NCC(c1ccc2c(c1)OCO2)N1CCOCC1", "note": "(stereo not drawn)", "survival": "inactive: 71%"},
      {"molecule": "Cc1ccc(-n2c(=O)c3oc4ccccc4c3n(CC(=O)Nc3ccc(F)c(Cl)c3)c2=O)cc1C", "survival": "inactive: 65%"},
      {"molecule": "COc1ccc(CN(C(=O)CN2C(=O)COc3ccccc32)C2CCCC2)c(OC)c1", "survival": "inactive: 69%"},
      {"molecule": "COc1ccccc1NC(=O)Cn1nnc(C(=O)Nc2ccccc2Br)c1N", "survival": "inactive: 89%"},
      {"molecule": "CCc1cccc(C)c1NC(=O)Cn1cc2c(n1)CCCCC2", "survival": "inactive: 90%"},
      {"molecule": "O=C(Nc1ccccc1)C1C2C=CC3(O2)C1C(=O)N(C1CCCC1)C3C(=O)NC1CCCCC1", "note": "(stereo not drawn)", "survival": "inactive: 59%"},
      {"molecule": "CC(=O)N1CCN(c2csc3ccc(Br)cc3c2=O)CC1", "survival": "inactive: 94%"},
      {"molecule": "CCC(C)NC(=O)CSc1nc(-c2ccc(F)cc2)cc(C(F)(F)F)n1", "note": "(stereo not drawn)", "survival": "inactive: 86%"},
      {"molecule": "COC(=O)c1ccccc1NC(=O)c1cnc2sc(N3CCOCC3)nn2c1=O", "survival": "inactive: 125%"},
      {"molecule": "O=C(CN1C(=O)COc2ccc(S(=O)(=O)N3CCCCCC3)cc21)NCCc1ccccc1", "survival": "inactive: 85%"},
      {"molecule": "Cc1ccc(NC(=O)N2CCN(C)c3ncccc32)cc1C", "survival": "inactive: 90%"},
      {"molecule": "COC(=O)c1ccccc1NC(=O)N1CCC(n2c(C)nc3cccnc32)CC1", "survival": "inactive: 115%"},
      {"molecule": "COc1cc(OC)c(N(C)C(=O)Cn2ncc3c(=O)oc4ccccc4c32)cc1Cl", "survival": "inactive: 91%"},
      {"molecule": "Cc1ccc(CN2C(=O)N(c3ccccc3)C(=O)C2CC(=O)Nc2ccccc2)cc1", "note": "(stereo not drawn)", "survival": "inactive: 73%"}
    ]}
  ]
}
